The list shows a part of the results.
B1: PhoQ; a variant is named by its letters at X, in order, P23837 (parent)
chain: MKKLLRLFFPLSLRVRFLLATAAVVLVLSLAYGMVALIGYSVSFDKTTFRLLRGESNLFYTLAKWENNKLHVELPENIDKQSPTMTLIYDENGQLLWAQRDVPWLMKMIQPDWLKSNGFHEIEADVNDTSLLLSGDHSIQQQLQEVREDDDDAEMTHSVAVNVYPATSRMPKLTIVVVDTIPVELKSSYMVWSWFIYVLSANLLLVIPLLWVAAWWSLRPIEALAKEVRELEEHNRELLNPATTRELTSLVRNLNRLLKSERERYDKYRTTLTDLTHSLKTPLXXLQXXLRSLRSEKMSVSDAEPVMLEQISRISQQIGYYLHRASMRGGTLLSRELHPVAPLLDNLTSALNKVYQRKGVNISLDISPEISFVGEQNDFVEVMGNVLDNACKYCLEFVEISARQTDEHLYIVVEDDGPGIPLSKREVIFDRGQRVDTLRPGQGVGLAVAREITEQYEGKIVAGESMLGGARMEVIFGRQHSAPKDE

Variants of: B1
Assay: enrichment ratio after two sorts for PhoP signalling (ratio (wild type AVST 3.29)); higher = more functional
Conditions: with PhoP (E. coli)

Row | Variant | enrichment ratio
1 | GYSD | ≤ 0.25
2 | RTFF | ≤ 0.25
3 | VYTN | ≤ 0.25
4 | QTWK | ≤ 0.25
5 | SFSL | ≤ 0.25
6 | LFWC | ≤ 0.25
7 | YDAH | ≤ 0.25
8 | SVWD | ≤ 0.25
9 | LMAE | ≤ 0.25
10 | RLTA | ≤ 0.25
11 | SRRV | ≤ 0.25
12 | MLTC | ≤ 0.25
13 | PHRP | ≤ 0.25
14 | ILGQ | ≤ 0.25
15 | FQQM | ≤ 0.25
16 | GCMY | ≤ 0.25
17 | GMHL | ≤ 0.25
18 | QACS | ≤ 0.25
19 | QQPI | ≤ 0.25
20 | TEED | ≤ 0.25
21 | EKRR | ≤ 0.25
22 | NPDQ | ≤ 0.25
23 | FIWS | ≤ 0.25
24 | RMWL | ≤ 0.25

Row | Variant | enrichment ratio
25 | QRKC | ≤ 0.25
26 | GDAV | 8.98
27 | VGHA | ≤ 0.25
28 | HIVD | ≤ 0.25
29 | KCNS | ≤ 0.25
30 | LFRE | ≤ 0.25
31 | SSCM | 19
32 | LRME | ≤ 0.25
33 | MYMV | 0.602
34 | RFVK | ≤ 0.25
35 | KTPV | ≤ 0.25
36 | GTTF | 8.24
37 | ISES | ≤ 0.25
38 | YKIE | ≤ 0.25
39 | ESFP | ≤ 0.25
40 | DIYA | ≤ 0.25
41 | HGEE | ≤ 0.25
42 | IHTT | 1.73
43 | RQWW | ≤ 0.25
44 | NSYR | ≤ 0.25
45 | SQAK | ≤ 0.25
46 | VMVC | ≤ 0.25
47 | SFAT | ≤ 0.25
48 | QVWR | ≤ 0.25

Row | Variant | enrichment ratio
49 | ESSV | 1.56
50 | VKLH | ≤ 0.25
51 | TSVR | ≤ 0.25
52 | GERF | ≤ 0.25
53 | DPKL | ≤ 0.25
54 | KDLK | ≤ 0.25
55 | NCCY | ≤ 0.25
56 | FSGE | ≤ 0.25
57 | GSCA | 0.424
58 | HEVL | ≤ 0.25
59 | QILT | ≤ 0.25
60 | KYFQ | ≤ 0.25
61 | IWDI | ≤ 0.25
62 | MCTP | ≤ 0.25
63 | IKQT | ≤ 0.25
64 | IWYD | ≤ 0.25
65 | PCMN | ≤ 0.25
66 | HNPV | ≤ 0.25
67 | DVFQ | ≤ 0.25
68 | NMFD | ≤ 0.25
69 | HEWV | ≤ 0.25
70 | GTRD | ≤ 0.25
71 | LKTD | ≤ 0.25
72 | HDDT | ≤ 0.25

Row | Variant | enrichment ratio
73 | SHAV | ≤ 0.25
74 | IAPF | ≤ 0.25
75 | VNIA | ≤ 0.25
76 | GSNV | ≤ 0.25
77 | ISCA | ≤ 0.25
78 | WNPT | ≤ 0.25
79 | KADS | ≤ 0.25
80 | LALT | 0.682
81 | HVTK | ≤ 0.25
82 | RKWA | ≤ 0.25
83 | QHHW | ≤ 0.25
84 | VFCH | ≤ 0.25
85 | GYMP | ≤ 0.25
86 | PQGF | ≤ 0.25
87 | YEQR | ≤ 0.25
88 | IFGR | ≤ 0.25
89 | DPFK | ≤ 0.25
90 | YTFY | 0.464
91 | RHYR | ≤ 0.25
92 | YDFC | ≤ 0.25
93 | MEFE | 6.04
94 | EQQH | ≤ 0.25
95 | HAHG | ≤ 0.25
96 | RQSM | ≤ 0.25

Row | Variant | enrichment ratio
97 | RPFP | ≤ 0.25
98 | TIFE | ≤ 0.25
99 | RSQE | ≤ 0.25
100 | MKAE | ≤ 0.25
101 | EPMP | ≤ 0.25
102 | TDKK | ≤ 0.25
103 | SMKY | ≤ 0.25
104 | TVSM | 37.3
105 | FGLY | 10.2
106 | WDFW | ≤ 0.25
107 | IVFT | ≤ 0.25
108 | TYLD | ≤ 0.25
109 | DFYP | ≤ 0.25
110 | RVRN | ≤ 0.25
111 | GYVY | ≤ 0.25
112 | FIYW | ≤ 0.25
113 | QMFA | ≤ 0.25
114 | LTTA | ≤ 0.25
115 | MNGN | ≤ 0.25
116 | QDHM | ≤ 0.25
117 | NFGT | ≤ 0.25
118 | YHCK | ≤ 0.25
119 | DHAV | ≤ 0.25
120 | DACA | ≤ 0.25

Row | Variant | enrichment ratio
121 | LRFM | ≤ 0.25
122 | STSS | 10.1
123 | PILR | ≤ 0.25
124 | RSSI | ≤ 0.25
125 | REPM | ≤ 0.25
126 | AFES | ≤ 0.25
127 | NTYD | ≤ 0.25
128 | TVVG | ≤ 0.25
129 | VLCH | ≤ 0.25
130 | TWCV | ≤ 0.25
131 | HVLI | ≤ 0.25
132 | LTMM | 2.28
133 | NFQM | ≤ 0.25
134 | TWAQ | ≤ 0.25
135 | DAED | ≤ 0.25
136 | AQNC | ≤ 0.25
137 | IGNC | ≤ 0.25
138 | NRWE | ≤ 0.25
139 | EADN | ≤ 0.25
140 | LSYK | ≤ 0.25
141 | WYIC | ≤ 0.25
142 | MIVK | ≤ 0.25
143 | VQVI | ≤ 0.25
144 | YQGD | ≤ 0.25

Row | Variant | enrichment ratio
145 | AAAW | ≤ 0.25
146 | QMCT | ≤ 0.25
147 | FDLQ | ≤ 0.25
148 | QSKR | ≤ 0.25
149 | WHLI | ≤ 0.25
150 | ADRY | ≤ 0.25
151 | WDRK | ≤ 0.25
152 | GTAM | ≤ 0.25
153 | RYML | ≤ 0.25
154 | FFWG | ≤ 0.25
155 | FYQM | ≤ 0.25
156 | LYKK | ≤ 0.25
157 | SIGA | 0.433
158 | HWIP | ≤ 0.25
159 | RIWG | ≤ 0.25
160 | DQYP | ≤ 0.25
161 | GNIQ | 9.19
162 | EAFY | ≤ 0.25
163 | SAQC | ≤ 0.25
164 | MYQK | ≤ 0.25
165 | TFGC | 1.37
166 | RYCG | ≤ 0.25
167 | PTNR | ≤ 0.25
168 | NDEP | ≤ 0.25

Row | Variant | enrichment ratio
169 | TVES | 4.64
170 | WTNW | ≤ 0.25
171 | DFSP | ≤ 0.25
172 | RRFN | ≤ 0.25
173 | QAMV | ≤ 0.25
174 | EDCH | ≤ 0.25
175 | WDRQ | ≤ 0.25
176 | HPDC | ≤ 0.25
177 | HCTM | ≤ 0.25
178 | SPPH | ≤ 0.25
179 | LDFW | ≤ 0.25
180 | MPSI | ≤ 0.25
181 | QFMC | ≤ 0.25
182 | DFHP | ≤ 0.25
183 | QRNR | ≤ 0.25
184 | QHIC | ≤ 0.25
185 | VFNA | ≤ 0.25
186 | KHYT | ≤ 0.25
187 | HHTN | ≤ 0.25
188 | DCMI | ≤ 0.25
189 | VKEI | ≤ 0.25
190 | PSVR | ≤ 0.25
191 | YNHL | ≤ 0.25
192 | RATT | ≤ 0.25

Row | Variant | enrichment ratio
193 | PYRT | ≤ 0.25
194 | GRAK | ≤ 0.25
195 | PWQP | ≤ 0.25
196 | RFRT | ≤ 0.25
197 | SWRH | ≤ 0.25
198 | SLMD | ≤ 0.25
199 | KAMM | ≤ 0.25
200 | ACFP | ≤ 0.25
201 | CKMF | 38.2
202 | VVID | ≤ 0.25
203 | QCEP | ≤ 0.25
204 | NPVA | ≤ 0.25
205 | HCMP | ≤ 0.25
206 | FYVS | ≤ 0.25
207 | PELH | ≤ 0.25
208 | WWSR | ≤ 0.25
209 | DILQ | ≤ 0.25
210 | HFLM | ≤ 0.25
211 | KGMA | ≤ 0.25
212 | TPSW | ≤ 0.25
213 | KILR | ≤ 0.25
214 | FNKR | ≤ 0.25
215 | TVFL | ≤ 0.25
216 | LGYQ | 6.12

Row | Variant | enrichment ratio
217 | TYLT | 0.265
218 | KSKQ | ≤ 0.25
219 | FCAP | ≤ 0.25
220 | ATFW | ≤ 0.25
221 | RHKR | ≤ 0.25
222 | KKTN | ≤ 0.25
223 | KYAS | ≤ 0.25
224 | KCCE | ≤ 0.25
225 | SPMG | ≤ 0.25
226 | DAQS | ≤ 0.25
227 | WYKF | ≤ 0.25
228 | DCQP | ≤ 0.25
229 | QGHC | 5.1
230 | KKLR | ≤ 0.25
231 | YVYF | ≤ 0.25
232 | AKMC | 8.12
233 | MQVL | ≤ 0.25
234 | EGAY | ≤ 0.25
235 | EPGF | ≤ 0.25
236 | VHHH | ≤ 0.25
237 | TKYY | ≤ 0.25
238 | SLDI | ≤ 0.25
239 | NQHE | ≤ 0.25
240 | DTYN | ≤ 0.25

Row | Variant | enrichment ratio
241 | IAVQ | ≤ 0.25
242 | TGVF | 1.12
243 | WRYW | ≤ 0.25
244 | AFSN | ≤ 0.25
245 | ESCD | ≤ 0.25
246 | SDWL | ≤ 0.25
247 | AGLL | 14.6
248 | ISPN | ≤ 0.25
249 | SYFH | ≤ 0.25
250 | CSVF | ≤ 0.25
251 | PADG | ≤ 0.25
252 | PANC | ≤ 0.25
253 | QGNP | ≤ 0.25
254 | NPSF | ≤ 0.25
255 | TDVY | 1.47
256 | HEQL | ≤ 0.25
257 | RYWS | ≤ 0.25
258 | GNVE | ≤ 0.25
259 | KNNE | ≤ 0.25
260 | TFWA | ≤ 0.25
261 | IPRM | ≤ 0.25
262 | LVAC | ≤ 0.25
263 | MDSF | ≤ 0.25
264 | VTCF | 0.49

Row | Variant | enrichment ratio
265 | GLYC | ≤ 0.25
266 | RAPW | ≤ 0.25
267 | MCGG | 6.24
268 | WRRC | ≤ 0.25
269 | MNHC | ≤ 0.25
270 | KYFI | ≤ 0.25
271 | NNYC | ≤ 0.25
272 | ITKF | ≤ 0.25
273 | SVDK | ≤ 0.25
274 | TWEM | 6.35
275 | KEFP | ≤ 0.25
276 | YTDC | ≤ 0.25
277 | LSWD | ≤ 0.25
278 | RCIA | ≤ 0.25
279 | QYTI | ≤ 0.25
280 | NFRL | ≤ 0.25
281 | WHHI | ≤ 0.25
282 | AMCM | 2.64
283 | TFQV | ≤ 0.25
284 | FLMF | ≤ 0.25
285 | VKMM | ≤ 0.25
286 | TLCD | ≤ 0.25
287 | AAHM | ≤ 0.25
288 | LGHC | ≤ 0.25

Row | Variant | enrichment ratio
289 | MIPR | ≤ 0.25
290 | TAYG | 6.62
291 | FCTF | ≤ 0.25
292 | KARM | ≤ 0.25
293 | NHFS | ≤ 0.25
294 | DEPT | ≤ 0.25
295 | QQST | ≤ 0.25
296 | KLAD | ≤ 0.25
297 | RMFI | ≤ 0.25
298 | YGRG | ≤ 0.25
299 | WPQK | ≤ 0.25
300 | PSGV | ≤ 0.25
301 | DASH | ≤ 0.25
302 | PEGV | ≤ 0.25
303 | EIRG | ≤ 0.25
304 | EDYA | ≤ 0.25
305 | TYRC | ≤ 0.25
306 | MPIG | ≤ 0.25

From a collection of fitness landscapes (doi:10.1126/science.1257360)
